Assay results from PubChem BioAssay AID624255 (Broad Institute, 2012).
In all, about 77,000 compounds went through this assay and about 4,600 (6%) were called active. The inconclusive results got no clear call from the source; some entries with a clear call stand among them for comparison.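 How the source made its calls: active means mean inhibition above about 93%, with at least 55% of replicates each passing it (limit read from the data, passing the limit was not always enough); inconclusive means only one of those two conditions holds; inactive means neither condition holds.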

assay: T. cruzi intracellular proliferation inhibitors, primary screen, cell-based, beta-gal Tulahuen parasites, NIH3T3 host, luminescence (AID 624255); conditions: T. cruzi beta-gal in NIH3T3, GalScreen luminescence, 90 h; at 8.34 µM; hits give high values

inhibition, inconclusive:
C[C@H](CO)N1C[C@H](C)[C@H](CN(C)C(=O)Nc2ccc(F)cc2)Oc2ncc(C#Cc3cccc(F)c3)cc2C1=O 105%
COc1cccc(-c2ccc3c(c2)[C@@H]2[C@@H](CCN2S(=O)(=O)c2ccccc2F)[C@@H](CO)N3)c1 101%
C[C@@H]1CN([C@H](C)CO)C(=O)c2cc(NS(=O)(=O)c3ccccc3)ccc2O[C@@H](C)CCCCO[C@@H]1CN(C)S(=O)(=O)c1ccc(Cl)cc1 107%
Cc1ccc(S(=O)(=O)N(C)C[C@H]2OCCCC[C@H](C)Oc3ccc(NC(=O)Nc4ccccc4)cc3C(=O)N([C@H](C)CO)C[C@H]2C)cc1 96.1%
Cc1cccc(S(=O)(=O)N2CCCCN3[C@H](C2)[C@@H](c2ccc(C#CC(C)C)cc2)[C@@H]3CO)c1 102%
C[C@@H]1CN([C@H](C)CO)C(=O)c2ccccc2-c2ccccc2CO[C@@H]1CN(C)C(=O)Nc1ccnc(N2CCOCC2)c1 100%
C[C@@H]1CN([C@@H](C)CO)S(=O)(=O)c2ccc(C#CC3CC3)cc2O[C@H]1CN(C)C(=O)c1ccccc1 100%
C[C@@H]1CN([C@H](C)CO)C(=O)c2cccc(NC(=O)NC3CCCCC3)c2O[C@H]1CN(C)Cc1ccc(Oc2ccccc2)cc1 130%
O=C(Nc1ccc(-c2ccccc2)cc1)[C@H]1[C@H](CO)[C@H]2Cn3c(cccc3=O)[C@H]2N1CC1CCCCC1 96.7%
CN1c2ccc(-c3ccc(F)cc3)cc2[C@H]2[C@H](CCN2C(=O)c2ccncc2)[C@@H]1CO 96.3%
C[C@H](CO)N1C[C@H](C)[C@@H](CN(C)Cc2ccccn2)Oc2cc(C#CCN(C)C)ccc2S1(=O)=O 99.4%
CC(C)CC#Cc1cnc2c(c1)C(=O)N([C@@H](C)CO)C[C@@H](C)[C@@H](CN(C)Cc1ccccc1F)O2 72.1%
C[C@H]1CN([C@@H](C)CO)C(=O)c2cc(C#CC3CCCCC3)cnc2O[C@@H]1CN(C)S(=O)(=O)c1ccccc1 96.2%
C[C@H](CO)N1C[C@H](C)[C@H](CN(C)Cc2ccccc2)OCCCC[C@H](C)Oc2ccc(NS(=O)(=O)c3ccc(F)cc3)cc2C1=O 100%
C[C@H](CO)N1C[C@H](C)[C@H](CN(C)C)Oc2cc(-c3ccccc3F)ccc2S1(=O)=O 95.2%
C[C@@H]1CN([C@@H](C)CO)S(=O)(=O)c2ccc(-c3ccc(F)cc3)cc2O[C@H]1CN(C)C(=O)Nc1ccc(F)cc1 97.5%
COc1ccc(S(=O)(=O)Nc2cccc3c2O[C@H](CN(C)Cc2ccc(C(=O)O)cc2)[C@H](C)CN([C@@H](C)CO)C3=O)cc1 95.3%
C[C@H]1CCCCO[C@H](CN(C)S(=O)(=O)c2ccccc2)[C@@H](C)CN([C@@H](C)CO)C(=O)c2cc(NC(=O)Nc3ccc(C(F)(F)F)cc3)ccc2O1 97.1%
CCCNC(=O)N1C[C@@H](C)[C@H](OC)CN(C)C(=O)c2ccc(NC(=O)C3CCC3)cc2OC[C@@H]1C 77.5%
C[C@@H]1CN([C@H](C)CO)S(=O)(=O)c2ccc(C#CC3CC3)cc2O[C@H]1CN(C)CC1CCOCC1 96.6%
CN1CCCCN2[C@H](CO)[C@H](c3ccc(-c4cccnc4)cc3)[C@@H]2C1 95.1%
C[C@@H]1CN([C@@H](C)CO)C(=O)c2cc(NC(=O)C3CCCCC3)ccc2O[C@@H]1CN(C)Cc1ccc(Cl)c(Cl)c1 111%
O=C(Nc1ccc(F)cc1)N1CCCCN2[C@H](C1)[C@H](c1ccc(-c3ccccc3F)cc1)[C@@H]2CO 96.8%
Cc1ccc(S(=O)(=O)N2CC[C@@H]3[C@H]2c2cc(-c4cccc(C#N)c4)ccc2N(C)[C@H]3CO)cc1 99%
COc1ccc(CN2C[C@H](C)[C@@H](OC)CN(C)C(=O)c3ccc(NC(=O)c4nc5ccccc5s4)cc3OC[C@H]2C)cc1 96.6%
CN(C)C(=O)c1ccc(-c2ccc3c(c2)[C@H]2[C@H](CCN2C(=O)Cc2ccccn2)[C@@H](CO)N3C)cc1 97.3%
O=C(NCCCN1CCOCC1)[C@H]1N[C@H]2c3ccc(C4=CCCCC4)c(=O)n3C[C@H]2[C@@H]1CO 95.3%
C[C@@H]1CN([C@H](C)CO)C(=O)c2cc(NC(=O)c3ccncc3)ccc2O[C@@H](C)CCCCO[C@@H]1CN(C)S(=O)(=O)c1ccc(Cl)cc1 100%
N#C[C@@H]1[C@@H](c2ccc(/C=C/c3ccccc3)cc2)[C@@H](CO)N1C(=O)C1CC1 95.3%
O=S(=O)(c1cccc(F)c1)N1CC[C@@H]2[C@H]1c1cc(C#Cc3ccccc3F)ccc1N[C@@H]2CO 95%
COc1ccc(NC(=O)Nc2ccc3c(c2)C(=O)N([C@H](C)CO)C[C@@H](C)[C@H](CN(C)C(=O)Nc2ccccc2)OCCCC[C@@H](C)O3)cc1 118%
C[C@@H]1CN([C@H](C)CO)C(=O)c2cc(NC(=O)Nc3ccc(F)cc3)ccc2O[C@@H]1CN(C)Cc1ccc(-c2ccccc2)cc1 91.8%
C[C@H](CO)N1C[C@H](C)[C@H](CN(C)S(=O)(=O)c2ccccc2)Oc2ncc(C#Cc3ccc(F)cc3)cc2C1=O 86%
CCS(=O)(=O)N1[C@H](CO)[C@@H](c2ccc(C#Cc3ccccc3F)cc2)[C@@H]1C#N 96.4%

inhibition, active:
C[C@H]1CCCCO[C@H](CN(C)C(=O)Nc2cccc3ccccc23)[C@@H](C)CN([C@@H](C)CO)C(=O)c2cc(NC(=O)Cc3ccccc3)ccc2O1 97.3%
COc1ccc(NC(=O)N2CCCCN3[C@H](C2)[C@@H](c2ccc(-c4ccccc4C)cc2)[C@@H]3CO)cc1 98.4%
C/C=C/c1ccc2c(c1)O[C@H](CN(C)C(=O)Nc1ccc(C(F)(F)F)cc1)[C@@H](C)CN([C@@H](C)CO)S2(=O)=O 101%
C[C@H](CO)N1C[C@H](C)[C@H](CN(C)Cc2ccc(C(F)(F)F)cc2)Oc2c(NC(=O)c3nc4ccccc4s3)cccc2C1=O 97.1%
COCC#Cc1ccc2c(c1)O[C@@H](CN(C)Cc1ccccc1)[C@H](C)CN([C@@H](C)CO)S2(=O)=O 101%
C[C@H]1CN([C@@H](C)CO)S(=O)(=O)c2ccc(C#Cc3ccc(F)cc3)cc2O[C@@H]1CN(C)S(C)(=O)=O 122%
Cc1ccc(S(=O)(=O)N(C)C[C@@H]2OCCCC[C@H](C)Oc3ccc(NS(=O)(=O)c4cccs4)cc3C(=O)N([C@@H](C)CO)C[C@H]2C)cc1 106%
Cc1ccc(-c2ccc3c(c2)O[C@@H](CN(C)C(=O)Nc2ccc(F)cc2)[C@H](C)CN([C@@H](C)CO)S3(=O)=O)cc1 119%
O=C(C[C@@H]1CC[C@@H]2[C@H](COC[C@H](O)CN2Cc2ccc(Oc3ccccc3)cc2)O1)N1CCN(c2ccccc2)CC1 115%

inhibition, inactive:
COc1ccc(NC(=O)N(C)C[C@@H]2OCc3cn(nn3)CCCC(=O)N([C@H](C)CO)C[C@@H]2C)cc1 6.29%
CN(C)CC(=O)Nc1ccc2c(c1)[C@H]1C[C@H](CC(=O)NCc3cccc(F)c3)O[C@H](CO)[C@H]1O2 0.437%
COc1ccc(S(=O)(=O)Nc2cccc3c2O[C@@H](CN(C)Cc2ccccc2)[C@H](C)CN([C@H](C)CO)C3=O)cc1 8.11%
CN1C(=O)c2cc(NC(=O)c3ccc(Cl)cc3)ccc2OC[C@H]2O[C@H](CC(=O)NCc3cccc(F)c3)CC[C@@H]21 42.8%
COc1ccc(S(=O)(=O)N[C@H]2C=C[C@H](CC(=O)NCCc3ccncc3)O[C@@H]2CO)cc1 51.9%
C[C@H](CO)N1C[C@H](C)[C@H](CN(C)C(=O)Nc2cc(F)ccc2F)Oc2cc(-c3ccc(C#N)cc3)ccc2S1(=O)=O 74.7%
CCCNC(=O)N1CC[C@@H]2[C@H]1c1cc(C#Cc3ccc(OC)cc3)ccc1N(C)[C@@H]2CO 48.4%
C[C@@H]1CN([C@H](C)CO)C(=O)Cc2cc(NC(=O)Nc3ccc4c(c3)OCO4)ccc2O[C@@H]1CN(C)S(=O)(=O)c1ccccc1 -35.9%
C[C@@H]1CCCCO[C@@H](CN(C)C(=O)c2ccccc2)[C@H](C)CN([C@@H](C)CO)C(=O)c2cc(NC(=O)c3ccncc3)ccc2O1 13.7%
COc1cccc(NC(=O)N[C@H]2C=C[C@@H](CC(=O)NCc3ccccn3)O[C@H]2CO)c1 13.9%
O=C(C[C@H]1C=C[C@H](NC(=O)Nc2cc(F)ccc2F)[C@H](CO)O1)NCCCN1CCOCC1 -28.1%
C[C@H](O)C#Cc1ccc2c(c1)O[C@@H](CN(C)Cc1ccc(-c3ccccc3)cc1)[C@H](C)CN([C@H](C)CO)S2(=O)=O 60%
COc1ccc(S(=O)(=O)Nc2ccc3c(c2)C(=O)N([C@@H](C)CO)C[C@@H](C)[C@@H](CN(C)Cc2ccc4c(c2)OCO4)OCCCC[C@@H](C)O3)cc1 87.5%
C[C@@H]1CN([C@H](C)CO)C(=O)c2cc(NC(=O)Cn3cnnn3)ccc2O[C@@H]1CN(C)S(=O)(=O)c1ccccc1 14%
